Measured values taken from PubChem BioAssay.
The shares of active, inactive and inconclusive entries below differ from those in the screen. The source made the active and inactive calls.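 Rule for the calls, unless noted: active = cell viability at or below a set limit in both duplicate runs, the limit being the all-compound median minus 4 SD (cut at about 23% in these data, passing the limit was not always enough); inconclusive = no clear call, values can overlap the other calls; inactive = the rest.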

Experiments:
[1] = viability of HCT116 without oncogenic beta-catenin – human colon tumor cells, pilot screen (AID 823); details: HCT116 beta-catenin knockout viability, CellTiter-Glo, 60 h; at 10 µM; hits give low values;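 note: 0% = wells killed by 20 µM Hyamine and 100% = untreated DMSO cell wells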
[2] = viability of PTEN-null HCT116 cells – cell-based, HCT116 clonal line, CellTiter-Glo, pilot screen (AID 824;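 active = viability at or below 27.92% in each of two runs, the all-compound median minus 4 SD; inconclusive = no clear call, values can overlap the other calls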;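 note: 0% = 20 µM Hyamine control and 100% = vehicle cell control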); details: HCT116 PTEN-deleted viability, 60 h, at 10 µM, hits give low values
[3] = RAM pathway blockade in budding yeast – dse1pr::URA3 reporter, 5-FOA selection, pilot screen (AID 869;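 active = inhibition over a set limit, the all-compound mean plus 3 SD, in both replicate runs; inconclusive = over that limit in just one replicate run; inactive = at or under that limit in both runs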;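 note: 0% = DMSO wells with no growth and 100% = 10 µM 1-NA-PP1 with full growth; RAM network block rescues cells from 5-FOA so hits raise OD615 growth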); details: S. cerevisiae dse1pr::URA3 5-FOA growth, OD615, 2 d; at 10 µM; hits give high values; strain carries analog-sensitive mutant Cbk1 kinase

Row | SMILES | viability [1] | viability [2] | inhibition [3]
1 | Cc1[nH]n2c(=O)c3c(nc2c1-c1ccc(Cl)cc1)CCC3 | active: 22.5% | active: 26.8% | 
2 | CCc1nnc2n1N=C(c1ccc(-c3cc(Cl)ccc3Cl)o1)CS2 | inconclusive: 26.1% | active: 22.4% | 
3 | CCN(CC)c1ccc2cc(-c3nc4ccccc4[nH]3)c(=O)oc2c1 | inconclusive: 23.5% | inconclusive: 29.1% | 
4 | COc1cc(C)c(C(C)C)cc1S(=O)(=O)n1cnc(C)c1 | inconclusive: 28.3% | inactive: 37.8% | 
5 | c1ccc(Nc2nc(N3CCCCC3)nc(N3CCNCC3)n2)cc1 | active: 3.71% | inconclusive: 15.7% | 
6 | CCCCCn1c(N2CCC(Cc3ccccc3)CC2)nc2c1c(=O)[nH]c(=O)n2C | active: 15.1% | active: 12.8% | 
7 | CCN1CCN(c2cc(C)c3cc(NC(=O)c4ccc(Br)o4)ccc3n2)CC1 | inconclusive: 19.4% | inconclusive: 25.6% | 
8 | Cc1cc(C2N=C(N)Nc3nc4ccccc4n32)c(C)n1-c1ccccc1Cl (configuration not stated) | active: 9.19% | active: 16.7% | 
9 | Cc1ccc(S(=O)(=O)c2nc(-c3ccc(F)cc3)oc2SCC(=O)NCC2CCCO2)cc1 (configuration not stated) | inconclusive: 21.8% | active: 15.3% | 
10 | CC(NC(=O)c1ccccc1O)c1ccccc1 (configuration not stated) | inconclusive: 103% | inactive: 94.1% | 
11 | CCCOc1ccc(/C(O)=C2/C(=O)C(=O)N(CCN(C)C)C2c2ccco2)cc1 (configuration not stated) | inconclusive: 98.5% | inactive: 99.6% | 
12 | COCC(=O)NCc1nc2ccccc2[nH]1 | inactive: 105% | inconclusive: 103% | 
13 | CCN(CC)S(=O)(=O)c1ccc2oc(C(=O)NCc3ccc(F)cc3)c(C)c2c1 | inconclusive: 66% |  | inactive: 1.37%
14 | O=C(Nc1ccccc1-c1nc2ccccc2s1)c1ccco1 | inactive: 74.7% |  | inconclusive: 5.38%
15 | COc1cc(NC(=O)COc2ccc(-n3cnnn3)cc2)c(OC)cc1Cl | inconclusive: 58.1% | inactive: 46.9% | inactive: 2.55%
16 | Cc1cc(=S)cc(C)n1CCCn1ccnc1 | inactive: 103% |  | inconclusive: 4.65%

Row | SMILES | viability [1] | viability [2] | inhibition [3]
17 | Cc1cccn2c(=O)c3cc(C(=O)NCCN4CCOCC4)c(=N)n(CCc4ccccc4)c3nc12 | active: 5.75% | active: 12.8% | 
18 | Cc1c(C(=O)NCc2ccc3c(c2)OCO3)oc2ccc(S(=O)(=O)N3CCCC3)cc12 | inconclusive: 76.1% |  | inactive: 1.78%
19 | CCn1nc(C(=O)NC2=NCCS2)c2ccccc2c1=O | inconclusive: 101% |  | inactive: 1.19%
20 | Cn1c(Cn2c(=O)sc3ccccc32)nnc1SCc1ccccc1 | inactive: 72.9% |  | inconclusive: 3.49%
21 | Cc1ccc2oc(=O)c3cnn(CC(=O)NCCc4ccsc4)c3c2c1 | inactive: 90.7% |  | inconclusive: 4.18%
22 | O=C1CCCC2=C1C(c1cccc(Br)c1)n1nc(-c3ccco3)nc1N2 (configuration not stated) | inactive: 81.5% |  | inconclusive: 6.16%
23 | CCOC(=O)C1CCCN(C(=O)Cn2sc3nc(C)cc(C)c3c2=O)C1 (configuration not stated) | active: 3.38% | active: 12.6% | 
24 | CCOc1cc(-c2nc(-c3ccc(OC)cc3)no2)cc(OCC)c1OCC | inactive: 93.9% |  | inconclusive: 5.63%
25 | Clc1ccc(-c2nnc(SCc3nc(-c4ccccc4)no3)o2)cc1 | inactive: 99.2% |  | inconclusive: 4.57%
26 | CCCn1c(CN2CCN(c3cccc(Cl)c3)CC2)nc2c1c(=O)n(C)c(=O)n2C | inconclusive: 27.8% |  | inconclusive: 2.75%
27 | CC(=O)c1ccc(C(=O)Nc2nnc(-c3ccc(Cl)cc3)o2)cc1 | inconclusive: 20% | active: 22.3% | inconclusive: 5.14%
28 | CCc1ccc(-c2nc(CSCC(=O)N3CCN(c4ncccn4)CC3)c(C)o2)cc1 | inconclusive: 30% |  | inconclusive: 3.04%
29 | COc1ccc(-c2cc(C(F)(F)F)nc(S(C)(=O)=O)n2)cc1OC | active: 14.5% |  | inconclusive: 4.81%
30 | CCN1CCN(c2cc(C)c3cc(NC(=O)c4cncc(Br)c4)ccc3n2)CC1 | inconclusive: 16.2% | inconclusive: 29% | inconclusive: 3.41%
31 | Cc1cccc(-n2c(=O)[nH]c3c(C(N)=O)nc(-c4ccccc4Cl)nc32)c1 | inconclusive: 22% | active: 11.7% | 
32 | CC(=O)c1cccc(NC(=O)CCS(=O)(=O)c2cccc3nonc23)c1 | inactive: 93.5% |  | inconclusive: 3.33%
